Measurements published in PubChem BioAssay AID624417 (National Center for Advancing Translational Sciences (NCATS), 2012).
Where “and” joins values, the source holds several entries; their conditions need not be identical. Identical values can stand only once. Among all 410,000 compounds or so, about 6,400 (1.6%) were called active. Inconclusive results, whose numbers are uncertain, are shown with a selection of clear calls. Calls come from the whole dose curve; as a rule, active = well fitted inhibition curve with a large enough effect; inconclusive = small, poorly fitted or top-dose-only effect; inactive = no such curve, though single readings can be large or run the other way. Potencies of inconclusive entries are doubtful fits and often do not repeat.
% is set by controls: 0 for no effect and ±100 for the full control effect; potency is the fitted concentration of half-maximal effect; tags give direction and shape of the fitted curve.
Note: nearly all actives have a fitted effect of over 55% in size.

What follows are molecules tested against Glucagon-like peptide 1 receptor (Homo sapiens) (UniProt P43220) (assay: qHTS of GLP-1 Receptor Inverse Agonists (Inhibition Mode)). Conditions: HEK293 GLP-1R CRE-luciferase, luminescence, 24 h, GLP-1R form is constitutively active; activity change, negative = inhibition: at 38.3 µM (top of the series) unless noted.
Sequence of UniProt P43220 (P43220 whole entry, looked up): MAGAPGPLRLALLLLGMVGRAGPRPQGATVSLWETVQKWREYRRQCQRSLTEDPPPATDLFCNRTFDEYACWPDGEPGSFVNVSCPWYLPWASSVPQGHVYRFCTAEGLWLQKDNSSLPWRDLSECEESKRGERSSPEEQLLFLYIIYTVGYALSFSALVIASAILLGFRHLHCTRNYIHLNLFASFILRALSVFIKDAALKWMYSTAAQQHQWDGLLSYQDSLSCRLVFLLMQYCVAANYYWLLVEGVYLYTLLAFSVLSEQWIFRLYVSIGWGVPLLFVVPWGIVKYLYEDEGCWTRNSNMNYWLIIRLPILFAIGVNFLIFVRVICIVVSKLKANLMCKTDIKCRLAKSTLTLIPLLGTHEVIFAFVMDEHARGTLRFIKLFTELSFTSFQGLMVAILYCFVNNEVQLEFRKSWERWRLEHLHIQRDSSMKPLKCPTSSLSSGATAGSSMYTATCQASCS
Outline: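 Seeding at 200 cells/uL, 12 h culture, 24 hr compound treatment, then luciferase reagent and a luminescence read; cells are HEK293 stably expressing a constitutively active GLP-1R plus cAMP-responsive luciferase.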
For `Cc1ccc(/C=N/Nc2nc(N3CCCCC3)nc(N3CCCCC3)n2)o1`, the activity change, negative = inhibition was inactive: -26% [at 7.66 µM].
`C=Cc1ccc(C2=CC(=O)C[C@H](c3ccc(OC)cc3)C2)cc1` was tested, and the Potency was inconclusive: 10 µM [inhibitor, single point].
`Cc1cccc(C)c1OCC(=O)OC/C(O)=C(\C#N)c1nc2ccccc2[nH]1` was tested, and the Potency was inconclusive: 28.2 µM [inhibitor, single point].
For `Cn1cccc1C(=O)NCCc1ccc(Cl)cc1`, the Potency was inconclusive: 28.2 µM [inhibitor, single point].
`O=C(c1cc(-c2ccccc2)on1)N1CCc2ccccc2C1` was tested, and the Potency was inconclusive: 28.2 µM [inhibitor, single point].
For `O=S(=O)(c1c(F)cccc1F)N1CCN(C(=S)NCc2ccc3c(c2)OCO3)CC1`, the Potency was inconclusive: 11.2 µM [inhibitor, partial curve, poor fit].
For `COc1ccc(Cl)cc1NC(=O)Cc1coc2c(C)c(C)ccc12`, the Potency was inconclusive: 11.2 µM [inhibitor, partial curve, poor fit].
For `CCOC(=O)C(NC(=O)NCc1ccc(F)cc1)(OCC)C(F)(F)F` (centres undefined), the Potency was inconclusive: 20 µM [inhibitor, single point].
For `c1ccc(Cn2c[n+](Cc3ccccc3)c3ccccc32)cc1`, the Potency was inconclusive: 3.16 µM [inhibitor, single point].
For `Cc1ccc2c(c1)N(C(=O)CCC(=O)N1CCN(c3ccccn3)CC1)CC(C)O2` (centres undefined), the Potency was inconclusive: 11.2 µM [inhibitor, partial curve, poor fit].
`CCCCn1c(-c2ccco2)nc2ccccc2c1=O` was tested, and the Potency was inconclusive: 12.6 µM [inhibitor, single point].
With `COc1ccc(C(=O)NCC2(c3ccc(OC)c(OC)c3)CCCC2)c(OC)c1` the Potency was inconclusive: 28.2 µM [inhibitor, single point].
For `COc1ccc(-c2cc(C(=O)N3CC(C)CC(C)C3)c3ccccc3n2)cc1` (centres undefined), the Potency was inconclusive: 12.6 µM [inhibitor, partial curve, poor fit].
For `COc1cccc(-c2cc(C(=O)N3CCN(c4ccccc4OC)CC3)no2)c1`, the Potency was inconclusive: 28.2 µM [inhibitor, single point] and inconclusive: 12.6 µM [inhibitor, single point].
`Cc1ccc(OCCNC(=O)c2ccccc2O)cc1` was tested, and the Potency was inconclusive: 10 µM [inhibitor, single point].
With `CC(Cc1ccccc1)C(=O)Nc1ccc(Br)cc1` (centres undefined) the Potency was inconclusive: 5.62 µM [inhibitor, full curve, poor fit].
For `Cc1ccc(-n2nc3c(=O)n(CC(=O)NCc4ccc(C)o4)nc(C)c3c2C)cc1`, the Potency was inconclusive: 5.62 µM [inhibitor, partial curve, poor fit].
In the case of `Cc1ccc(SC(C)c2nc(-c3ccncc3)no2)cc1` (centres undefined), the Potency is reported as inconclusive: 28.2 µM [inhibitor, single point].
With `Cc1ccc(O)c(-c2cc(-c3ccccc3[N+](=O)[O-])[nH]n2)c1` the Potency was inconclusive: 28.2 µM [inhibitor, single point].
In the case of `CCOC(=O)c1c(C)[nH]c(C)c1S(=O)(=O)N1CCC(C(=O)N2CCN(c3cccc(C)c3C)CC2)CC1`, the Potency is reported as inconclusive: 6.31 µM [inhibitor, partial curve, poor fit].
For `COc1ccc(-c2cccc(NC(=O)c3cccs3)c2)nn1`, the Potency was “inactive”.
In the case of `Cc1cc(O)c(/C=N/Nc2ccccc2)c(=O)o1`, the Potency is reported as inconclusive: 2.51 µM [inhibitor, full curve].
`COc1ccc(-n2c(C)cc(C(=O)NC3CCCCC3)c2C)cc1` was tested, and the Potency was inconclusive: 28.2 µM [inhibitor, single point].
`CC1Cc2ccccc2N1Cc1ccc([N+](=O)[O-])cc1` (centres undefined) was tested, and the Potency was inconclusive: 10 µM [inhibitor, partial curve, poor fit].
In the case of `N#CC1=C(N)Oc2n[nH]c(-c3cccs3)c2C1C1CCCCC1` (centres undefined), the Potency is reported as inconclusive: 22.4 µM [inhibitor, single point].
For `O=C(NCCc1ccc(F)cc1)c1ccc2nccnc2c1`, the Potency was inconclusive: 11.2 µM [inhibitor, partial curve, poor fit].
In the case of `COC(=O)c1ccc(NC(=O)CCc2c(C)nn(-c3ccc(N4CCOCC4)nn3)c2C)cc1`, the Potency is reported as “inactive”.
`CCOc1ccccc1N(C)C(=O)C1CCCN(c2ncnc3onc(-c4ccc(F)cc4)c23)C1` (centres undefined) was tested, and the Potency was “inactive”.
`CN(C)C/C=C(\c1ccc(Br)cc1)c1cccnc1` was tested, and the Potency was inconclusive: 10 µM [inhibitor, single point].
`CCC(c1nc2ccccc2[nH]1)n1c(-c2ccc3ccccc3c2)nc2ccccc21` (centres undefined) was tested, and the Potency was inconclusive: 28.2 µM [inhibitor, single point].
For `Cc1c(C(=O)c2ccc(Cl)cc2[N+](=O)[O-])c2ccccn2c1CCC#N`, the Potency was inconclusive: 0.501 µM [inhibitor, full curve, poor fit].
`CC(=O)Nc1cc(-c2cccc(C(=O)NCCO)c2)cn2c(-c3cccc(C(F)(F)F)c3)cnc12` was tested, and the Potency was “inactive”.
In the case of `O=C(CN1CCN(Cc2ccc(Cl)cc2)C1=O)NCc1ccc(F)cc1`, the Potency is reported as “inactive”.
In the case of `O=C(Cc1ccccc1)Nc1ccc(C(=O)Nc2ccc(O)cc2)cc1`, the Potency is reported as inconclusive: 15.8 µM [inhibitor, single point].
For `O=[N+]([O-])c1cc(S(=O)(=O)Nc2ccc(Cl)cc2)ccc1N/N=C/c1ccncc1`, the Potency was “inactive”.
With `Cc1cc(C)c2c(CN3CCN(Cc4ccc5c(c4)OCO5)CC3)cc(=O)oc2c1C` the Potency was inconclusive: 3.55 µM [inhibitor, full curve, poor fit].
For `CN(C)CCCNc1oc(/C=C/c2ccc(F)cc2)nc1C#N`, the Potency was “inactive”.
For `O=C(CCc1nc(-c2ccccc2F)no1)NCCN1CCc2ccccc2C1`, the Potency was inconclusive: 5.01 µM [inhibitor, partial curve, poor fit].
For `Cc1ccc(C2=Nc3ccccc3N(CC(=O)Nc3cccc(F)c3)C(=O)C2)cc1C`, the Potency was inconclusive: 10 µM [inhibitor, partial curve, poor fit].
In the case of `CCCSc1nc2c(cnn2-c2ccccc2)c(=O)n1N`, the Potency is reported as inconclusive: 15.8 µM [inhibitor, single point].
With `COC(C/C=C\C(=O)[C@H](C)OCc1ccccc1)OC` the Potency was “inactive”.
In the case of `COc1cc(SC)ccc1C(=O)Nc1ccc(Cl)cn1`, the Potency is reported as active: 2.24 µM.
`N#C/C(=N\Nc1ccccc1[N+](=O)[O-])C(=N)N1CCCCC1` was tested, and the Potency was inconclusive: 20 µM [inhibitor, single point].
For `OCCNCc1ccc(OCc2ccc(Cl)cc2Cl)cc1`, the Potency was inconclusive: 7.08 µM [inhibitor, partial curve, poor fit].
For `CCCNC(=O)c1cc(C2CCCCN2C(=O)CCCc2ccccc2)on1` (centres undefined), the Potency was inconclusive: 8.91 µM [inhibitor, partial curve, poor fit].
For `CC(C)(C)c1ccc(C(=O)N2CCC(C(=O)NCC3CCCO3)CC2)cc1` (centres undefined), the Potency was “inactive”.
`Cc1nc(C(C)NC(=O)c2cc(COc3ccc(C)c(C)c3)on2)c(C)s1` (centres undefined) was tested, and the Potency was inconclusive: 5.62 µM [inhibitor, full curve].
With `COc1ccc(C2=Nc3ccccc3N(C(=O)c3cc(Cl)cc(Cl)c3)C2C(=O)NCc2ccccc2)cc1` (centres undefined) the Potency was inconclusive: 22.4 µM [inhibitor, partial curve, poor fit].
For `O=C(NNC(=S)NC1CCCCC1)c1sc2ccccc2c1Cl`, the Potency was “inactive”.
`Cc1cccc(C)c1NC(=O)C(c1ccc(-c2ccccc2)cc1)n1c(=O)c(-c2cc3ccccc3[nH]2)nc2ccccc21` (centres undefined) was tested, and the Potency was inconclusive: 4.47 µM [inhibitor, partial curve, poor fit].
`COc1ccc(C(=O)NNC(=O)c2ccc(S(=O)(=O)N3CCCCC3)cc2)cc1` was tested, and the Potency was “inactive”.
With `O=S(=O)(NC1CCCCC1N1CCN(c2ccccc2F)CC1)c1ccccc1` (centres undefined) the Potency was inconclusive: 10 µM [inhibitor, partial curve, poor fit].
For `Cc1ccc(NC(=O)C2(c3ccc([N+](=O)[O-])cc3)CCCC2)cc1`, the Potency was active: 10 µM.
For `COc1ccccc1CCNC(=O)C1(C)CC1(Cl)Cl` (centres undefined), the Potency was inconclusive: 5.01 µM [inhibitor, full curve].
With `Cc1cc(NC(=O)c2ccccc2-c2ccccc2)ccc1Br` the Potency was active: 10 µM.
For `C/C(=N\NC(=O)NC1CCCCC1)c1ccc(OC(F)F)cc1OC(F)F`, the Potency was inconclusive: 14.1 µM [inhibitor, single point].
In the case of `COC(=O)c1ccc(C)c(NC(=O)CCSc2ccc(Cl)cc2)c1`, the Potency is reported as inconclusive: 28.2 µM [inhibitor, single point].
In the case of `CC(C)c1ccc(NC(=O)C2Cc3c(-c4cccc(F)c4)ccnc3O2)cc1` (centres undefined), the Potency is reported as inconclusive: 6.31 µM [inhibitor, partial curve].
`O=C(NCc1ccc(F)cc1)c1ccc(NC(=O)N2CC3CCCN3c3ccccc32)cc1` (centres undefined) was tested, and the Potency was inconclusive: 11.2 µM [inhibitor, partial curve, poor fit].
With `CCN(CC)C(=O)Oc1ccc2c(=O)c(-c3ccc(OC)cc3)c(C)oc2c1` the Potency was inconclusive: 28.2 µM [inhibitor, single point].
For `CCNC(=S)N/N=C(\C)c1ccc(Cl)s1`, the Potency was inconclusive: 5.01 µM [inhibitor, full curve, poor fit].
With `Cc1ccc(NC(=O)c2cccn2-c2nnc(N3CCCCC3)s2)cc1Cl` the Potency was inconclusive: 28.2 µM [inhibitor, single point].
`CCC(c1nc2ccccc2[nH]1)n1c(=O)c(-c2ccccc2)nc2ccccc21` (centres undefined) was tested, and the Potency was inconclusive: 10 µM [inhibitor, partial curve, poor fit].
For `CCCCCCn1c(=O)n2n(c1=O)[C@@H]1CN(S(=O)(=O)c3ccc(C)cc3)C[C@]1(O)[C@@H](OC(=O)NCC1CCCCC1)C2`, the Potency was inconclusive: 28.2 µM [inhibitor, single point].
